The whole screen tested about 410,000 compounds, of which about 1,200 (0.29%) were called active. Inconclusive results, whose numbers are uncertain, are shown with a selection of clear calls. The call rests on the fitted dose curve; in most records, active means well fitted activation curve with a large enough effect; inconclusive means small, poorly fitted or top-dose-only effect; inactive means flat fitted curve, though single readings scatter. Potencies of inconclusive entries are doubtful fits and often do not repeat.
Test: qHTS of Nrf2 Activators; further: nearly all actives have a fitted effect of over 65% in size; on activation: % of control where 0% means no effect
Settings: AREc32 ARE-luciferase reporter (MCF7-derived line), luminescence, 24 h; activation: at 46.1 µM (top of the series)
In short: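 For detection, Steady-Glo was added and plates sat 30 min at RT; before that, AREc32_Fluc cells grown overnight in OPTI-MEM/5% FBS had been treated with 23 nL compound for 24 hr at 37 deg C.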
Potency means the concentration at half of the fitted maximal effect; tags describe the fitted curve by direction and shape.

activation, inactive:
Cc1cccc(-c2noc(-c3ccc(NCc4cccnc4)c([N+](=O)[O-])c3)n2)c1 8.77%
COc1ccc(CCn2c(-c3cccc([N+](=O)[O-])c3)nc3nc4ccccc4nc32)cc1OC 0.0873%
Cc1ccccc1Cn1c(=O)n(CCCCCC(=O)NCc2ccc3c(c2)OCO3)c(=O)c2sccc21 0.119%
Cc1cc(SCC(=O)c2cccs2)n2nc(C)c(-c3ccc(Cl)cc3)c2n1 0.127%
COc1cc2c(cc1NC(=O)Nc1ccc(C)cc1)oc1ccccc12 5.23%
COCCCn1c(C(=O)N2CCOCC2)cc2c(=O)n3cccc(C)c3nc21 -0.508%
COc1cccc(CN2C(=O)N(c3ccc(C)cc3)C(=O)C2CC(=O)Nc2cc(OC)cc(OC)c2)c1 (stereo not given) 3.39%
COc1ccc([N+](=O)[O-])cc1NC(=O)C(C)N1CCCC1 (stereo not given) 5.18%
CCn1nc(NC(=O)c2ccccc2)c2cc3cccc(C)c3nc21 -0.0143%
N#C/C(C(=O)N1CCOCC1)=c1/s/c(=C\c2ccccn2)c(=O)n1-c1ccccc1 1.91%
COc1ccc(NC(=O)c2cccc(S(=O)(=O)Nc3ccc(Br)cc3)c2)cn1 3.7%
COc1ccccc1OCCn1c(C(C)Oc2ccccc2)nc2ccccc21 (stereo not given) 0.359%
CCCN(CCC)CC(C)(C)NS(=O)(=O)c1ccc(Cl)cc1 0.357%
Cc1cccc(OCC(=O)Nc2ccc3nc(Nc4cccc(C(F)(F)F)c4)cc(C)c3c2)c1 -0.516%
CCC(=O)N/C(N)=N/c1nc(C)c2cc(OC)ccc2n1 5.55%
O=C(Cc1ccc(F)cc1)NCCc1csc(-c2cccc(F)c2)n1 4.1%
COC(=O)c1cc(NS(=O)(=O)c2ccc(C)c3ccccc23)ccc1N1CCOCC1 -0.3%
COc1cccc2sc(N3CCN(C(=O)CS(=O)(=O)c4ccc(Cl)cc4)CC3)nc12 3.73%
Cn1nnnc1SCCNCc1ccccc1OCc1ccc(Cl)cc1Cl -4.96%
NC(=O)C1CCCN1 (stereo not given) -0.261%

Potency, inconclusive:
CCOC(=O)CS(=O)(=O)c1nc(-c2ccccc2)cc(C(F)(F)F)n1 3.98 µM [activator, single point]
O=C(CSc1nc2ccccc2o1)Nc1ccc(Cl)cc1 22.4 µM [activator, single point]
COCCn1c(-c2ccco2)nc2nc3ccccc3nc21 12.6 µM [activator, single point]
O=C(Cn1ncc(Cl)c(Cl)c1=O)Nc1ccc2c(c1)OCO2 3.16 µM [activator, partial curve, poor fit]
COc1ccccc1N1CCN(Cc2ccc(O)c3ncccc23)CC1 10 µM [activator, partial curve]
CC1(C)CC(=O)C(CS(=O)(=O)c2ccccc2)=C(Cl)C1 20 µM [activator, single point]
O=C(Nc1ccccc1Cl)c1c(F)c(F)c(F)c(F)c1F 15.8 µM [activator, single point]
FC(F)(F)c1cc(Cl)c2nc(-c3ccccc3)c(Cc3ccsc3)n2c1 22.4 µM [activator, single point]
COC(=O)c1sccc1NC(=S)N1CCCC(C)C1 (stereo not given) 35.5 µM [activator, single point]
O=C(OCC(=O)N1CCCC1)c1cc([N+](=O)[O-])ccc1Cl 5.01 µM [activator, full curve]
Nc1ccc(C2=Nc3cccc4cccc(c34)N2)cc1 22.4 µM [activator, single point]
COc1cccc(CNc2nc3cc(-c4cccc(Cl)c4)sc3c(=O)n2C)c1 12.6 µM [activator, single point]
O=C(c1ccccc1)C1CN(Cc2ccccc2)CCC1(O)c1ccccc1 (stereo not given) 28.2 µM [activator, single point]
COCCN(C(=O)COC(=O)/C=C/c1ccccc1Cl)c1c(N)n(Cc2ccccc2)c(=O)[nH]c1=O 10 µM [activator, partial curve, poor fit]
O=C(COC(=O)/C=C/c1ccc2ccccc2n1)NNC(=O)c1ccccc1 22.4 µM [activator, single point]
O=c1cc(-c2ccccc2)nc2nc(-c3ccco3)[nH]n12 31.6 µM [activator, single point]
Cc1nc(NC(=O)c2ccco2)sc1C(=O)Nc1ccc(Br)cc1 0.562 µM [activator, full curve, poor fit]
O=C(/C=C/c1ccc[nH]1)c1ccccc1 15.8 µM [activator, single point]
CCCCCn1c(=O)c2ccccc2n2c(CCl)nnc12 25.1 µM [activator, single point]
CC1=C(SCCC#N)S/C(=C2\SC(C)=C(SCCC#N)S2)S1 17.8 µM [activator, single point]
Cc1ccc2nc(NC(=O)CSc3nc(=O)n(CCCN(C)C)c4c3CCC4)sc2c1 31.6 µM [activator, single point]
COc1ccc(CCNC(=O)/C=C/c2ccc3ccccc3n2)cc1OC 25.1 µM [activator, single point]
S=c1[nH]nc(-c2ccco2)n1/N=C/c1ccc(Cl)cc1Cl 12.6 µM [activator, partial curve, poor fit]
c1ccc(C2=Nn3c(nnc3-c3ccco3)SC2)cc1 2.82 µM [activator, full curve, poor fit]
O=C(Nc1nnc(Cc2ccccc2)s1)c1ccccc1 12.6 µM [activator, partial curve, poor fit]

Potency, active:
Cn1c(/C=C/c2ccccc2)nc2ccccc2c1=O 11.2 µM
Cc1c(C(=O)/C=C/c2cccs2)oc2ccc(F)cc12 7.94 µM
Cc1cc(C)n2nc(-c3ccco3)nc2n1 12.6 µM
COc1ccc(/C=C/C(=O)c2cc(Br)ccc(=O)c2O)cc1 12.6 µM

Potency, inactive:
Cc1nc2c(o1)CCc1ccccc1C2N1CCN(C)CC1 (stereo not given)

Reference: PubChem BioAssay AID624171 (National Center for Advancing Translational Sciences (NCATS), 2012)
